Among all 310,000 compounds or so, about 2,200 (0.71%) showed an effect of 50% or more. The effect is printed as a negative number. The list shows a part of the results.
What follows are compounds tested against human ether-à-go-go-related gene (hERG) potassium channel (human, UniProt Q12809) (assay: primary screen, population patch clamp on CHO cells stably expressing hERG).
Sequence of human ether-à-go-go-related gene (hERG) potassium channel (Q12809 whole entry, looked up): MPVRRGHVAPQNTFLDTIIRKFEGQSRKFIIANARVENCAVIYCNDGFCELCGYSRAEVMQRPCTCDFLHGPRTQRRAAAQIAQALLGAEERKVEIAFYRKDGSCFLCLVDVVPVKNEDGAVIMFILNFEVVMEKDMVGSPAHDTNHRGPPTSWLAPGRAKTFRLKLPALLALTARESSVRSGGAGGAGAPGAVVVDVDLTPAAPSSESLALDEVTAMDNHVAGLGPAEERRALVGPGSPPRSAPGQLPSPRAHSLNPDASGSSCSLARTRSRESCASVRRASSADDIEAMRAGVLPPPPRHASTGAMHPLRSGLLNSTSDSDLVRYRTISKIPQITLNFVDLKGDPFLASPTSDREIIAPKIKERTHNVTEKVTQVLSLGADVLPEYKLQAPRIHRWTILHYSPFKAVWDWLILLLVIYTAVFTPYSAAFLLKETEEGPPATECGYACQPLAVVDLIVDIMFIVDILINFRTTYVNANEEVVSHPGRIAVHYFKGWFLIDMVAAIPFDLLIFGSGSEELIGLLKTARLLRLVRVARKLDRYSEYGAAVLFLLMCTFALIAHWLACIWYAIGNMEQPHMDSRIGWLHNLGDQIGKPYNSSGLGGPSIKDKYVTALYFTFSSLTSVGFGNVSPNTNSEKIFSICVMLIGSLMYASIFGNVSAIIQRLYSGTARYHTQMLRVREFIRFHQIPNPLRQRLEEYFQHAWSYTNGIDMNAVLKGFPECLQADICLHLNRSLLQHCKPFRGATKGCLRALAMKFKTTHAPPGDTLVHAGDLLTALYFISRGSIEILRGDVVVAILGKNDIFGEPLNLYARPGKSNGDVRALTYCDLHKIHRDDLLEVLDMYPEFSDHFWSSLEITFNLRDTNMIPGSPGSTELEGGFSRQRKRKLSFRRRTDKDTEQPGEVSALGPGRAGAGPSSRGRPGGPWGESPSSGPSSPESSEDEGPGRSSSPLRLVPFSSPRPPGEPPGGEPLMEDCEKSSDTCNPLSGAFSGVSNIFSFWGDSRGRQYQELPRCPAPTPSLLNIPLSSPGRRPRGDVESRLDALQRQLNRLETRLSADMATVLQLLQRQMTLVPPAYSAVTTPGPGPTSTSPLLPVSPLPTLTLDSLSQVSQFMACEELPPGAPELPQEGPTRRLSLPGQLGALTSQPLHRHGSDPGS

| Structure (SMILES) | hERG current change (%, negative = inhibition) at 1uM [%] |
| --- | --- |
| CN(C)CCCN(C(=O)CCS(=O)(=O)c1ccccc1)c1nc2cc3c(cc2s1)OCO3.Cl | -28.8 |
| O=S(=O)(c1cccc(F)c1)N1CCN(C(=S)NCC2CCCO2)CC1 (centres unmarked) | 10.9 |
| COc1cccc(NC(=O)CN(C)C(=O)Cn2cnc3ccccc3c2=O)c1 | 6.94 |
| Cc1cc(Oc2ccc(C(C)(C)C)cc2)nc(N2CCOCC2)n1 | 8.4 |
| CCn1c(SCC(=O)Nc2ccc(NC(=O)c3ccco3)c(OC)c2)nc2ccccc2c1=O | 5.55 |
| COC(=O)C(NNc1ccc(F)cc1)(NC(=O)c1ccccc1)C(F)(F)F (centres unmarked) | 9.81 |
| O=C(CSc1nnnn1-c1ccccc1)c1ccc(O)cc1O | 10.1 |
| CCNC(=O)c1ccc2c(c1)C1C3CCC(C3)C1C(c1ccccc1)N2 (centres unmarked) | 12.6 |
| CCOc1ccc(S(=O)(=O)N2CCOCC2)cc1NC(=O)CSCc1c(C)noc1C | 2.49 |
| O=C(c1ccccc1)c1ccc2nc(-c3ccc(NC(=O)c4ccccc4F)cc3)[nH]c2c1 | 3.36 |
| COc1ccc(OC)c(-n2c(=S)[nH]c3cc(C(=O)NCCCN4CCCC4=O)ccc3c2=O)c1 | 12.7 |
| CCC1=NN2C(=N)/C(=C/c3cc(C)n(-c4ccccc4)c3C)C(=O)N=C2S1 | 13.3 |
| COc1ccc(C2COC(=O)C2=N)c(NC(=O)c2ccccc2)c1 (centres unmarked) | -0.0052 |
| O=C(O)c1ccccc1NS(=O)(=O)c1ccc2c3c(cccc13)C(=O)N2 | 12.2 |
| Cc1cccc(C)c1OCC(=O)N/N=C/c1cccn1C | -0.66 |
| COc1ccc(C(=O)OCCc2ccc(O)cc2)cc1 | 8.12 |
| COc1cccc(CN(CC(=O)NCc2ccco2)C(=O)CNS(=O)(=O)c2ccccc2)c1 | -3.3 |
| COc1ccc(NC(=O)c2cc(-c3cccs3)on2)c(OC)c1 | 15.4 |
| CC(C)(C)[C@@H]1C=C(C(N)=O)O[C@H](OCCCCO)C1 | 8.39 |
| Cc1ccc(-c2nc3ncccc3o2)cc1NC(=S)NC(=O)c1ccco1 | 9.78 |
| CCNc1nc2[nH]c(=O)c3c(c2s1)OC(N)=C(C#N)C3c1ccc(C)cc1 (centres unmarked) | 9.56 |
| CCc1ccc(N2CC(C(=O)Nc3ccc4c(c3)OCO4)CC2=O)cc1 (centres unmarked) | 20.1 |

| Structure (SMILES) | hERG current change (%, negative = inhibition) at 1uM [%] |
| --- | --- |
| CCN1CCN(Cc2cc(OC)c3c(c2)OCO3)CC1 | 10.4 |
| CC(C)(C)NC(=O)NC(=O)CN1CCCc2ccccc21 | 17.6 |
| CC(C)(O)C#Cc1ccc(C(=O)NCc2ccccc2F)cc1 | 4.67 |
| Cn1cccc1C(=O)OCC(=O)Nc1ccc2c(c1)CCC2 | 9.67 |
| Cc1cccc(Nc2nc(-c3cccs3)cs2)n1 | 15.6 |
| COc1ccc(C2C3=C(CCCC3=O)Nc3nc(-c4cc(OC)c(OC)c(OC)c4)nn32)cc1OC (centres unmarked) | 1.65 |
| COc1ccc(S(=O)(=O)N2CCOCC2)cc1NC(=O)c1cccc2c(=O)c(C)c(-c3ccccc3)oc12 | -6.09 |
| CCOC(=O)N1CCN(C(=O)CS(=O)(=O)c2cn(Cc3ccccc3Cl)c3ccccc23)CC1 | 5.52 |
| COc1ccc(-c2cn3cccc(C)c3n2)cc1F | -24.9 |
| O=C(Nc1nnc(Cc2ccccc2)s1)C1CCN(C(=O)c2ccco2)CC1 | -7.73 |
| CCOc1ccc(C(c2c(O)nc(SC)[nH]c2=O)c2c(O)nc(SC)[nH]c2=O)cc1 | 20.5 |
| Cc1ccc(C(c2sc3nc(C)nn3c2O)N2CCN(c3ccc(F)cc3)CC2)cc1 (centres unmarked) | -10.1 |
| CCCCN(C)C(=O)c1cc2c(s1)-c1ccccc1S(=O)(=O)C2 | -6.69 |
| O=C(COc1cccc2ccccc12)NNC(=O)CSCCO | 3.84 |
| CCCCCCNc1c([N+](=O)[O-])cc(C)cc1[N+](=O)[O-] | 1.7 |
| CC(=O)N1CCN(C(=O)CNc2cc(C(F)(F)F)ccc2OCC(F)(F)F)CC1 | 6.04 |
| COc1ccc(S(=O)(=O)N2CCN(C(=O)c3cc(C)oc3C)CC2)cc1 | 11.1 |
| Cc1ccc(C2=NN(S(=O)(=O)c3ccccc3)C(c3ccco3)C2)cc1 (centres unmarked) | 16 |
| CCn1ncc(/C=C/C(=O)NCc2cnn(C)c2C)c1C | 13.3 |
| CC(C)(C)c1ccc(C(=O)c2c[nH]c(C(=O)NCCCN3CCOCC3)c2)cc1 | 12.1 |
| CC1CCC(C(=O)c2c(O)c3ccccc3oc2=O)CC1 (centres unmarked) | 14.6 |
| O=C(Nc1ccc(NC(=O)c2cc3ccccc3o2)cc1)c1ccco1 | 25.1 |

| Structure (SMILES) | hERG current change (%, negative = inhibition) at 1uM [%] |
| --- | --- |
| NC(=NCCc1ccccc1)NS(=O)(=O)c1ccc2ccccc2c1 | 11.7 |
| Cc1ccc(C(CC(=O)c2ccco2)SCCO)cc1 (centres unmarked) | 11.5 |
| COC(=O)C1(Cc2cc(-c3cccnc3)no2)CCN(C(=O)OC(C)(C)C)CC1 | 14.9 |
| COCCNC(=O)CSC1=N/C(=C/c2ccc(Cl)c(Cl)c2)C(=O)N1c1ccccc1F | 12.3 |
| COc1cc(NC(=O)c2cc3c(CO)cnc(C)c3oc2=Nc2cccc(C(N)=O)c2)cc(OC)c1 | 6.02 |
| COc1ccc(C(CNC(=O)c2c(C)nn(Cc3ccc(C)cc3)c2Cl)N2CCOCC2)cc1 (centres unmarked) | 6.02 |
| C/C(CC(=O)NC(C)(C)C)=N\NC(=O)COc1ccc(C)cc1Br | 12.1 |
| COc1ccccc1N(CC(=O)NCCSCc1ccc(C)cc1)S(=O)(=O)c1ccccc1 | 8 |
| COc1nc(N(C)C)nc(-n2nnc(C(C)=O)c2C)n1 | 0.596 |
| CC(=O)Nc1ccc(-c2nnc(SCc3c(C)cc(C)cc3C)n2C)cc1 | 11 |
| O=C(Nc1nnc(-c2ccc3c(c2)OCCO3)o1)c1ccc(Cc2ccccc2)cc1 | 5.98 |
| O=c1ccn(Cc2ccc(F)cc2)c2ccnc(C(F)(F)F)c12 | 0.268 |
| Cc1cccc(CN2CCC(C(=O)Nc3ccc(Oc4cccnc4)cc3)CC2)c1 | 5.98 |
| COP(=O)(OC)C(NC(=O)c1ccc(C)cc1)C(Cl)(Cl)Cl (centres unmarked) | 10.1 |
| CCS(=O)(=O)N1CCN(C2CCC(c3ccccc3)CC2)CC1.O=C(O)C(=O)O (centres unmarked) | -1.29 |
| C=C(C)C1CC=C(C)/C(=N\NC(=O)CCC(=O)Nc2ccc(C)c(C)c2)C1 (centres unmarked) | 17.3 |
| Cc1ccccc1-c1ncc(CN2CCC(CO)(CCCc3ccccc3)CC2)cn1 | 15.6 |
| Cc1cccn2cc(-c3ccc(Cl)cc3)nc12 | 17.9 |
| Clc1ccc(C2C3=C(Nc4ncnn42)c2ccccc2CC3)cc1 (centres unmarked) | -10.7 |
| Cc1csc(NC(=O)Cc2ccccc2Cl)n1 | 16.9 |
| Cc1cccc(N2CCN(Cc3nc(CC4CC4)no3)CC2)n1 | 7.51 |
| COc1ccc(N(CCC#N)S(=O)(=O)c2cccc3nsnc23)cc1 | 4.71 |

| Structure (SMILES) | hERG current change (%, negative = inhibition) at 1uM [%] |
| --- | --- |
| O=C(O)CCC(=O)N1N=C(c2ccccc2)CC1c1ccc2c(c1)OCO2 (centres unmarked) | 11.1 |
| O=C(COc1ccccc1Cl)NCCCN1CCOCC1 | 7 |
| O=C(OCc1cncs1)c1ccccc1 | 20.4 |
| CC(=O)OCC(=O)Nc1ccc(SC(F)F)cc1 | 1.43 |
| Cc1ccc(C(C(=O)NCc2ccco2)N(C(=O)Cn2nnc3ccccc32)c2ccccc2)o1 (centres unmarked) | 5.83 |
| COc1ccc(NC(=O)c2sc3nc(N4CCOCC4)c4c(c3c2N)CC(C)(C)OC4)cc1 | 11.4 |
| Cc1ccc(C)c(NC(=O)CSc2nnc(Cc3cccn3C)n2-c2ccc(F)cc2)c1 | 4.58 |
| Cc1c(NS(=O)(=O)c2ccccc2)cc(Cl)c(O)c1C | 7.8 |
| Cn1nc(-c2ccccc2)c(COC(=O)c2cccc(Cl)c2)c1S(=O)(=O)c1ccccc1 | 1.22 |
| Cc1cc(C)cc(N(CCC#N)C(=O)COC(=O)CNC(=O)c2sc3ccccc3c2Cl)c1 | 4.98 |
| CCc1ccc2c(COC(=O)CNS(=O)(=O)c3ccc(NC(C)=O)cc3)cc(=O)oc2c1 | 3.34 |
| CCOC(=O)c1c(C)n(Cc2ccco2)c2ccc(OC)cc12 | -13.9 |
| CCOP(=O)(OCC)c1nc(-c2ccccc2)oc1N1CCCCC1 | 10.5 |
| Cc1ccc(Nc2nc(C)cs2)cc1 | 5.56 |
| Nc1nc(NCCCN2CCOCC2)nc(Nc2ccc(Cl)cc2)c1[N+](=O)[O-] | 14.8 |
| O=C(CCC(=O)N1CCOCC1)Nc1nnc(C2CCCCC2)s1 | 8.33 |
| CCn1c(CNc2cccc(Cl)c2)nnc1SCc1ccccc1 | 6.21 |
| CC1(c2ccccc2)NC(=S)N2C1NC(=S)N2c1ccccc1 (centres unmarked) | 15.5 |
| CCC(Cc1ccccc1)NS(=O)(=O)c1ccc2c(c1)NC(=O)CS2 (centres unmarked) | 5.69 |
| CCN(CC)C(=O)COc1cc(C)cc2oc(=O)c3c(c12)CCCC3 | 10.3 |
